Test results reported in patent US20100210517A1.
These are yes or no findings as the source states them, for the method shown. Some results given as binding are weak or reduced against the parent protein; the word gives no strength.

The chains behind the UniProt entries cited, without tags or fusion partners. Where a name states a change or a piece, a line headed by the entry shows the natural chain unless it says otherwise. Residues count along the entry.
UniProt P98164, residues 1025-1102: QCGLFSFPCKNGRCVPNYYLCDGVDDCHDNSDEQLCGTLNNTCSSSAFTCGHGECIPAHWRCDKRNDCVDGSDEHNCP
UniProt P30533: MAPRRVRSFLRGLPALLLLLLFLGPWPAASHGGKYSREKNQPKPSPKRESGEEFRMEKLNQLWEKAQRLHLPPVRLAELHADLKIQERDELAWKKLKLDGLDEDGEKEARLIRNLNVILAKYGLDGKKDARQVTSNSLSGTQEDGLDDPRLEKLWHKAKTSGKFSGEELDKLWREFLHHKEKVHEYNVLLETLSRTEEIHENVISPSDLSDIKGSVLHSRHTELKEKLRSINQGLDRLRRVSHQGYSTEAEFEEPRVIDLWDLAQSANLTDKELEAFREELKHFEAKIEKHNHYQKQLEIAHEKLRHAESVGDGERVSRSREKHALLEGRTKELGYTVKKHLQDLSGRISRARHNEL

How the values were obtained:
[1] = biological target: LRP2 CR89 (human) (UniProt P98164); experiment: solid-phase binding assay, CR protein coated on plate, anti-RAP detection
[2] = biological target: LRP2 CR89 V1047D (human) (UniProt P98164); experiment: solid-phase assay on coated CR protein, anti-RAP detection, A450
[3] = biological target: LRP2 CR89 V1047D R1088D (human) (UniProt P98164); experiment: as above
[4] = biological target: LRP2 CR89 V1047D (human) (UniProt P98164); experiment: condition: 100 nM (highest concentration in Figure 6); solid-phase assay on coated CR protein, single-site non-linear fit
[5] = biological target: LRP2 CR89 V1047D R1088D (human) (UniProt P98164); experiment: as above
[6] = biological target: LRP2 CR89 (human) (UniProt P98164); experiment: solid-phase assay on coated CR protein, anti-RAP detection, A450

## MegaRAP1 d3 double revertant T213S, E270K (from UniProt P30533 235-353) (ligand)
[1]
  binding: binds

## RAP d3 (wild-type domain 3 of human RAP, amino acids 201-319 of mature RAP) (from UniProt P30533 235-353) (ligand)
[2]
  binding: no binding (tested: 100 nM)
[3]
  binding: no binding (tested: 100 nM)
[4]
  binding: no binding
[5]
  binding: no binding

## RAP d3 forward mutant E251K, K256A, K270E (from UniProt P30533 235-353) (ligand)
[6]
  binding: binds
